# In article PMC4336329 (PLoS ONE, 2015):
# The campaign covered roughly 310,000 compounds. About 2,200 (0.71%) showed an effect of 50% or more. Effects have a minus sign here. The list shows a part of the results.
# Molecular target: human ether-à-go-go-related gene (hERG) potassium channel (human, UniProt Q12809)
# Test: primary screen, population patch clamp on CHO cells stably expressing hERG
# Chain of human ether-à-go-go-related gene (hERG) potassium channel (Q12809 whole entry, looked up): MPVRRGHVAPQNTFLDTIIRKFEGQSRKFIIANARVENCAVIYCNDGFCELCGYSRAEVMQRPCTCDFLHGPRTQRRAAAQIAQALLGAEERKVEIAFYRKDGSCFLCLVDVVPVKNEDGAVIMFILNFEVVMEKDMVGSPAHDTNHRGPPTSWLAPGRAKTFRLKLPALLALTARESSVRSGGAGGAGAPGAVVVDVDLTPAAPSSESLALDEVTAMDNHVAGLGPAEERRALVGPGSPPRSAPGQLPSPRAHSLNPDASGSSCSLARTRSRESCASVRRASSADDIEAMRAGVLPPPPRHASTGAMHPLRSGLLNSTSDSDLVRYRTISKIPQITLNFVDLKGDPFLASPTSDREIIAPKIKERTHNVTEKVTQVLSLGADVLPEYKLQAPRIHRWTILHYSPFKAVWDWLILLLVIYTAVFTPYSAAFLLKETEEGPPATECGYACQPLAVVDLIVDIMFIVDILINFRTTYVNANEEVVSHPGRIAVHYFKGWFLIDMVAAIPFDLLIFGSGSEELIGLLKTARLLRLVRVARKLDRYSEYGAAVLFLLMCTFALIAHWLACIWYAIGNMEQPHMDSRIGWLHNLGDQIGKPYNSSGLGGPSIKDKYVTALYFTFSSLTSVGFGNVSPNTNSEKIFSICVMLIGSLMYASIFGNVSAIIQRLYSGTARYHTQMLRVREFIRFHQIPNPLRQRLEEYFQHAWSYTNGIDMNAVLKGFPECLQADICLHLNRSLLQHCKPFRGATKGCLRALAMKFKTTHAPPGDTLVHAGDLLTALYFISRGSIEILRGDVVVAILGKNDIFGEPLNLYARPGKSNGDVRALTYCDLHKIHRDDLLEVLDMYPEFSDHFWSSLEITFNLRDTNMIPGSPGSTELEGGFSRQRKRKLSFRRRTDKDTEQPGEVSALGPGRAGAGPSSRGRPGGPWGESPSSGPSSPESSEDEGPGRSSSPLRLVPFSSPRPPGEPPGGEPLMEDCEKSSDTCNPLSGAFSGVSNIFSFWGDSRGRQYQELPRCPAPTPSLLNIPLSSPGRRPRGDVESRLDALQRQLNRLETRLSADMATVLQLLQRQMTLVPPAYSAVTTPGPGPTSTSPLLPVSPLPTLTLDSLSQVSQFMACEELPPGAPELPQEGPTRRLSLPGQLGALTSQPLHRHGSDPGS
row,SMILES,"hERG current change (%, negative = inhibition) at 1uM [%]"
1,CN(C)C(=O)OCc1n(C)cc[n+]1C.Cc1ccc(S(=O)(=O)[O-])cc1,13.4
2,CCCSCCCNC(=O)CN1C(=O)COc2ccc(S(=O)(=O)N3CCCC3)cc21,11.9
3,O=C1NC(=O)C(C(CC(=O)c2ccccc2)c2ccccc2)C(=O)N1 (stereo not shown),14.3
4,COc1ccc(CCNc2nc3ccc(C)cc3n3cnnc23)cc1OC,8.38
5,O=C(Nc1ncc2c(n1)-c1ccccc1CC2)c1cccc(Cl)c1,5.84
6,CC(C)(C)NC(=O)CSc1nnc(-c2ccncc2)o1,3.34
7,Cc1cc(NC(=O)CSc2nnc(-c3cccnc3)n2N)no1,6.86
8,Cc1ccc(-c2nn(-c3ccccc3)cc2CN(Cc2ccccc2)C(=O)CCC(=O)O)o1,11.4
9,Cc1cc(C(=O)N/N=C/c2cc(Br)ccc2OC(=O)c2ccc(Br)cc2)n[nH]1,4.08
10,CC(C)Nc1ncnc2ccc(Br)cc12,12.6
11,O=C(CCCc1c[nH]c2ccccc12)N1CCN(S(=O)(=O)c2cccs2)CC1,-1.01
12,Cc1ccccc1OCC(O)CN(CCO)Cc1ccccc1.Cl (stereo not shown),-7.48
13,NC(=O)CSc1nnc(COc2cccc3ccccc23)o1,7.91
14,CCNc1oc(-c2ccc(OC)cc2)nc1S(=O)(=O)c1ccc(Br)cc1,1.36
15,CCOC(=O)CCn1cc(F)c(=O)n(Cc2ccccc2)c1=O,8.36
16,CC(=O)N/C(=C\c1ccccc1)C(=O)OCC(=O)N(CC(C)C)c1c(N)n(Cc2ccccc2)c(=O)[nH]c1=O,9.2
17,CCc1c(C)c(C#N)c2[nH]c3ccccc3n2c1=S,10.5
18,COc1ccc(CCNC(=O)c2c(O)c3c([nH]c2=O)CCCC3)cc1OC,5.09
19,Cc1[nH]c(=S)n(CC2CCCO2)c1C (stereo not shown),-19.5
20,O=C(Nc1ccccc1)OCCNC(=O)c1ccccc1,3.96
21,N=P(N1CCOCC1)(N1CCOCC1)C12CC3CC(CC(C3)C1)C2,15.7
22,CCC1=NN(C(=O)c2ccc(C)cc2)C(O)(c2ccc(Br)cc2)C1 (stereo not shown),7.75
23,NC(=O)/C(N=Nc1ccccc1)=N/Nc1ccccc1,7.1
24,CSCCC(N=C1NS(=O)(=O)c2ccccc21)C(=O)NCc1ccccc1F (stereo not shown),4.89
25,CN(C)C(=O)CSc1ccccc1C(=O)OCC(=O)NC1CC1,2.26
